# Measured values as given in the supplement of paper PMC10338343.
# ± gives the standard deviation. The full ranking holds about 6,600 sequences; the median of “pre-steady-state target cleavage rate” is about 0.07, and the highest 2% start at about 0.72. The entries are a selection whose mix differs from that of the whole data set.
# Test system: MIWI (PIWIL1) piRISC loaded with Kctd7 piRNA (30 nt)
# Assay: pre-steady-state target cleavage rate (min^-1); MIWI and MILI are mouse PIWI proteins and EfPiwi is from a freshwater sponge; tags in brackets are library labels; higher = faster piRNA-guided slicing of the target
# Conditions: guide: Kctd7 piRNA 5'p-UGUUAAUCUCUCAGAGAAGGUGACAGUGAU; auxiliary factor: 500 nM mouse GTSF1
# How it was run: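 In this Cleave-'n-Seq assay, uncleaved targets were sequenced and normalised to depth and to weakly complementary targets. They came from a transcribed, DNA-blocked target RNA library […] mixed with 1 nM active affinity-purified piRISC carrying one synthetic guide, with or without 500 nM GTSF1 partner protein, in HEPES–potassium acetate buffer at 33 °C for 0–8 or 0–960 min. After three trials were pooled and k3 was capped at 0.0001 min^-1, the pre-steady-state cleavage rate was obtained from a burst-and-steady-state fit.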
# 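Also: 1 nM active piRISC with 0.1 nM target library at 33 °C single turnover.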
row,Sequence,pre-steady-state target cleavage rate
1,AUCACUGUCACCUUCUCUGAGUCAUUAUGA,0.00326 ± 0.0025
2,UAGUGACAGUCCUUCUCUGAGAGACUAACA,0.00948 ± 0.0027
3,UAGUGAGUCACCAUCUCUGAGAGAUUAUGA,0.0408 ± 0.014
4,UAGUGACUCACGUUCUGUGAGAGAUUAACA,0.191 ± 0.027
5,UAGUGACACACCUACUCUCAGAGAUUAACA,0.00712 ± 0.0036
6,UAGUGACACACCUUCCCUGAGAGAUUAACA,0.256 ± 0.056
7,AUCACUGAGACCUUCUCUGAGAGAUUAAGA,0.17 ± 0.033
8,UAGUGUGUCUCCUUCUCUGUGAGAUUAACA,0.0767 ± 0.0088
9,UAGUGAGUCACCUUCUCUGAGAGAAUUAACA,0.308 ± 0.044
10,UAGUCUGUCACCUUCCCUGAGAGAUUAACA,0.298 ± 0.038
11,UACACUGUCAUCCUUCUCUGAGAGAUUAACA,0.271 ± 0.026
12,UUCACUGUCUCCUACUCUGAGAGAUUAACA,0.614 ± 0.036
13,UAGUGACUCUCCUUCUCUGACAGAUUAACA,0.03 ± 0.0045
14,UAGUGACAGUGGAAGUCUGACAGUUUAACA,< 0.0001
15,UAGUCUGUCACCUUGAGUGAGAGAUUAACA,0.00414 ± 0.0035
16,UUCACUGUCACCUUGUCUGAGAGAUUAUCA,0.467 ± 0.079
17,AUCACUGUGACCUUCACUGAGAGAUUAACA,0.277 ± 0.016
18,UAGUGAGUCACCUUCUCAGAGAGAAUAACA,0.0547 ± 0.011
19,UAGACUGUCACCUUCUCUGACUCUAAUUGA [g11:g27:cont:t1A],< 0.0001
20,UACACUGACACCUUCUCUGAGAGAAUAACA,0.338 ± 0.089
21,AUCACUGUCACCUUCUCAGAGAGAUAAACA,0.106 ± 0.011
22,UAGUGACAGUGGAAGACUGAGAGUUUAUCA,< 0.0001
23,UACACUGACACCUUCUGUGAGAGAUUAACA,0.338 ± 0.028
24,UUCACUGUCACCUUCUCUGGGAGAUUAACA,0.492 ± 0.021

row,Sequence,pre-steady-state target cleavage rate
1,UAGUGAGUCACCUUCUCUGAGACUAUAACA,0.00394 ± 0.0036
2,UUCACUGUCACCUUCUCUGAGAGAGUUAACA,0.421 ± 0.055
3,UAGUCUGUCACGUACUCUGAGAGAUUAACA,0.227 ± 0.027
4,UACACUGUCUGCUUCUCUGAGAGAUUAACA,0.708 ± 0.043
5,UAGUGACAGACGUUCUCUGAGAGAUUAUCA,0.00619 ± 0.0026
6,UAGUGAGUCACCUUCUUUGAGAGAUUAACA,0.534 ± 0.04
7,UAGUCAGUCACCUACUCUGAGAGAUUAACA,0.698 ± 0.035
8,UAGUCUGUCACCUUCUCUCUGAGAUUAACA,0.0156 ± 0.0033
9,UAGACUGUCACCUUCUCUGAGAGAUUGACA,0.506 ± 0.047
10,UAGUGUGUCACCUUCUCUGAGAGUUUUUGA,0.12 ± 0.033
11,UAGUGAGUCACCUUCUCUGAGAGUUAACA,0.194 ± 0.053
12,UAGUGACAGACCAUCUCUGAGAGAUUUACA,0.0073 ± 0.0026
13,AACACUGUCACCUUCUCUGAGAGUUUAACA,0.518 ± 0.077
14,UAGUGAGUCAACUUCUCUGAGAGAUUAACA,0.697 ± 0.041
15,UAGUGACUCAGCUUCUCUGAGACAUUAACA,0.0131 ± 0.0029
16,UAGUCUGUGACCUUCACUGAGAGAUUAACA,0.343 ± 0.021
17,UAGUGACAGACCUUCUCUGAGAGCAUUAACA,0.0617 ± 0.0085
18,UACACUGCACCUUCUCUGAGAGAUUAACA,0.569 ± 0.027
19,UAGUGUGUCACACUUCUCUGAGAGAUUAACA,0.334 ± 0.036
20,UAGUCUGUCACCUUCUCAGAGAGAUUAUGA,0.0185 ± 0.0083
21,UAGUCUGUCACCUUGUGUGAGAGAUUAACA,0.0528 ± 0.0048
22,UAGUGACAGUGGAAGACUCAGUGAUUAACA,< 0.0001
23,UAGUGAGUCACCAACUCUGAGAGAUUAACA,0.229 ± 0.029
24,UACACUGUCACCUUCUCUGAGAGAAUUAACA,0.442 ± 0.081

row,Sequence,pre-steady-state target cleavage rate
1,UAGUGUGUCAGCUACUCUGAGAGAUUAACA,0.389 ± 0.026
2,AUCACUGUCAGGUUCUCUGAGAGAUUAAGA,0.0697 ± 0.013
3,UAGUGUGUCACCUUGUCUGAGAGAUUAACA,0.256 ± 0.034
4,UAGUCUGUCACCUUCUCUGUGUGAUUAACA,0.014 ± 0.0051
5,AUCACUGUCACCUUCUCUGAGAAGAUUAACA,0.096 ± 0.022
6,UAGUGUGUCUCCUUCUCUGAGAGUUUAACA,0.142 ± 0.018
7,UAGUGUGUCACGUUCUCUGAGAGAUUUUGA,0.00531 ± 0.0038
8,UAGACUGUCACCUUCUCUGACUGAUUAUGA,< 0.0001
9,UAGUGAGUCACCUUCUCUGAGAGUUUAUGA,0.309 ± 0.069
10,UAGUCUGUCACCUUCUCUGAGAGUUAUUGA,0.123 ± 0.039
11,UAGACAGUCACCUUCUGUGAGAGAUUAACA,0.514 ± 0.027
12,AUCACUGUCACCUUCUCUUAGAGAUUAACA,0.415 ± 0.021
13,UAGUGAGUCACCAUCUCUGACAGAUUAACA,0.192 ± 0.023
14,UAGUGACACACCUUCUCUGACACAUUAACA,0.00429 ± 0.0031
15,UACACUGUGACCUUCUCUGAGAGAUUAAGA,0.128 ± 0.022
16,AACAGUGUCACCUUCUCUGAGAGAUUAACA,0.705 ± 0.033
17,UAGUGUGUCACCUUCUCUGAGAGAUUAAAA,0.177 ± 0.028
18,AUCACUGUCACCUUCUCUGGGAGAUUAACA,0.532 ± 0.022
19,UAGUCUGACACCUUCUCUGACAGAUUAACA,0.131 ± 0.019
20,UAGUCACUCACCUUCUCUGAGAGAUUAAGA,0.0529 ± 0.011
21,AUCACUGUCACCUUCUCUGACAGAUUAAGA,0.01 ± 0.0043
22,UAGUCUGUGACCAUCUCUGAGAGAUUAACA,0.399 ± 0.024
23,UACACUGUCACCUUCUCAGACAGAUUAACA,0.0952 ± 0.013
24,UAGUCUGUCAGCUUCUCUCAGAGAUUAACA,0.0853 ± 0.0075
